Results: PubChem BioAssay AID686970 (National Center for Advancing Translational Sciences (NCATS), 2013)
Among all 360,000 compounds or so, about 6,000 (1.7%) were called active. Inconclusive results, whose numbers are uncertain, are shown with a selection of clear calls. The call rests on the fitted dose curve; in most records, active means well fitted cell-killing curve with a large enough effect; inconclusive means small, poorly fitted or top-dose-only effect, or effect the other way; inactive means flat fitted curve, though single readings scatter. No potency is given beside an inconclusive call; the fits are too rough.

Test: qHTS for induction of synthetic lethality in tumor cells producing 2HG: qHTS for the HT-1080-NT fibrosarcoma cell line;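 further: NT is the 2HG producing partner of a matched IDH1 knockdown line; nearly all actives have a fitted effect of over 55% in size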;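 on activity, negative = less viability: 0% = DMSO-treated cells and -100% = media-only wells without cells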
Settings: HT-1080-NT fibrosarcoma viability, CellTiter-Glo ATP luminescence, 48 h; activity, negative = less viability: at 46.1 µM (top of the series) unless noted
Summary of the method: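 Toxicity toward the 2HG-producing NT line was scored as %Activity, normalised to DMSO and no-cell wells, from CellTiter-Glo luminescence after 48 hours' treatment.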
Potency means the concentration at half of the fitted maximal effect; tags describe the fitted curve by direction and shape.

Structure (SMILES) | Potency | activity, negative = less viability
COc1ccc(CCNc2oc(-c3ccco3)nc2C#N)cc1 | inactive | 
CCCCCCCn1c2c(c(=N)c3c1CCC3)CCCC2 | active: 9.2 µM | 
O=C(ONC1=NCCCCC1)c1cccc([N+](=O)[O-])c1 | inconclusive [cytotoxic, single point] | 
CC(C)(C)c1ccc(OCCCCCCN2CCNCC2)cc1 | inconclusive [cytotoxic, single point] | 
Cc1ccn2c(NC3CCCCC3)c(-c3ccc(C)o3)nc2c1 | inconclusive [cytotoxic, single point] | 
O=C(CNC(=O)c1ccc2c(c1)OCCO2)N/N=C/c1ccco1 |  | inconclusive: 31.2%
CCOC(=O)c1c(NC(=O)CSc2nc3ccccc3s2)sc(C)c1C | inactive | 
Cc1cccc(OCc2nnc(NC(=O)Cc3cccs3)s2)c1 | inconclusive [cytotoxic, single point] | 
O=C(COc1ccc(Cl)cc1Cl)NC(=S)N1CCCc2ccccc21 | inconclusive [cytotoxic, partial curve] | 
Cc1ccc(C)c(-c2csc(N)c2C(=O)OC(C)C)c1 | inconclusive [cytotoxic, single point] | 
O=C(NN1C(=O)C2C(C1=O)C1C=CC2C12CC2)c1ccccc1 (stereo unspecified) | inactive | 
Cc1ccc(NC2=C(N3CCOCC3)C(=O)c3ccccc3C2=O)cc1 | inconclusive [cytotoxic, single point] | 
COc1ccc(-c2cc3ccc(O)cc3oc2=O)cc1OC | inconclusive [cytotoxic, single point] | 
Cc1ccc(O)c(C(=O)c2cnc3c(c2)CN(C)C(=O)N3)c1 | inconclusive [cytotoxic, single point] | 
COCCCNCCCCOc1ccc(OCc2ccccc2)cc1 | inconclusive [cytotoxic, single point] | 
C=CCC[C@H](Cc1ccc(F)cc1)C(=O)OC[C@@H](NC(=O)[C@@H](CC=C)CC(=O)N(CCO)Cc1ccccc1)C(C)(C)C | inconclusive [cytotoxic, single point] | 
Nc1ncnc2c1ncn2C1OC(COP(=O)(O)O)C(O)C1O (stereo unspecified) | active: 7.31 µM | 
CN(C)c1ccc(NC(=S)Nc2ccc3c(c2)c(=O)n(C)n3-c2ccc(C(C)(C)C)cc2)cc1 | inconclusive [cytotoxic, single point] | 
COc1cc(CN2CCC(C(=O)NC(c3ccc(-c4ccccc4)cc3)c3cnccn3)CC2)cc(OC)c1 (stereo unspecified) | active: 23.1 µM | 
CCn1nc(C)c(CNC(=O)c2cc(COc3ccc(C)nc3)on2)c1C | inconclusive [cytotoxic, single point] | 
CCc1cc(C(=O)c2ccc(C)cc2)c(NC(=O)CCl)s1 | inconclusive [cytotoxic, single point] | 
C/C(=N\Nc1nc(Cl)c(Cl)cc1Cl)c1ccc(S(=O)(=O)NCc2ccco2)cc1 | inactive | 
NS(=O)(=O)c1ccc(CCNC(=O)Cc2cccs2)cc1 |  | inconclusive: 36.4%

Structure (SMILES) | Potency | activity, negative = less viability
CCN(CC)CCNC(=O)c1ccc(NC(=O)c2ccc(C(=O)c3ccccc3)cc2)cc1 | active: 20.6 µM | 
CCCCOc1ccccc1C1CC(=O)NC2=C1C(=O)CCC2 (stereo unspecified) | active: 2.31 µM | 
O=C(Nc1ccc2c(c1)OCO2)c1ccc(NC2CC2)c([N+](=O)[O-])c1 | inconclusive [cytotoxic, single point] | 
O=C(CCl)Nc1c2c(nn1-c1ccccc1)CSC2 | inconclusive [cytotoxic, single point] | 
CCC(C)NCCOCCOc1cc(C)c(Cl)c(C)c1 (stereo unspecified) | active: 20.6 µM | 
O=C(Oc1c(CN2CCOCC2)cc(Cl)c2cccnc12)c1ccc(F)cc1 | inconclusive [cytotoxic, single point] | 
COc1ccccc1C(c1nnnn1C(C)(C)C)N1CCCc2ccccc21 (stereo unspecified) | inactive | 
CC(NC(=O)C(C)(C)C)C(c1cccs1)N1CCOCC1 (stereo unspecified) | inactive | 
Cc1ccccc1Oc1cc(-n2ncc(Cl)c(Cl)c2=O)ncn1 | active: 13 µM | 
O=C(Cc1ccc(Cl)cc1)Nc1ccc2oc(-c3ccncc3)nc2c1 | inconclusive [cytotoxic, single point] | 
CCCc1cc2c(=O)c(-c3ccccn3)coc2cc1OC |  | inconclusive: 9.92%
CC(C)NC(=O)C1(C)CCN1C(=O)Cc1ccc(-c2ccccc2)cc1 (stereo unspecified) | inconclusive [cytotoxic, single point] | 
N/C(=N\OC(=O)c1cc([N+](=O)[O-])ccc1Cl)c1ccccn1 | inconclusive [cytotoxic, single point] | 
C=CCC[C@@H](CCCCC)OC(=O)/C=C/[C@H](O)[C@@H](O)C[C@@H](O)CC=C | inconclusive [cytotoxic, single point] | 
CCCCc1ccc(NC(=O)CSc2nc(=O)n(CCN(C)C)c3c2CCC3)cc1 | active: 20.6 µM | 
COc1ccc(CNCCC(c2ccc(F)cc2)c2ccc(OC)cc2)cc1 (stereo unspecified) | active: 20.6 µM | 
COc1cccc(C(=O)NCCS(=O)(=O)N2CCN(C(=O)c3ccco3)CC2)c1 | inactive | 
Cc1ccc(F)cc1C(=O)N1CCCC(c2cc(C(=O)Nc3ccccc3Cl)no2)C1 (stereo unspecified) | inconclusive [cytotoxic, full curve, poor fit] | 
O=C(CSc1nc2ccccc2c(=O)[nH]1)N1CCN(c2ccccc2)CC1 | inconclusive [cytotoxic, single point] | 
Oc1ccc(NCc2cccs2)cc1 | inconclusive [cytotoxic, single point] | 
CC(=O)N1N=C(c2ccccc2)CC1c1cn(Cc2ccccc2)c2ccccc12 (stereo unspecified) | inconclusive [cytotoxic, partial curve] | 
COc1ccc(OC)c(C(=O)c2coc3cc(Br)c(O)c(Br)c23)c1 | inconclusive [cytotoxic, single point] | 
C[C@H](NC(=O)c1nc[nH]c1C(=O)N[C@@H](Cc1ccccc1)C(=O)OC(C)(C)C)C(=O)OC(C)(C)C | inconclusive [cytotoxic, single point] | 
